Reference: patent US12692294B2, “Engineered NRG-1 variants with improved selectivity toward ErbB4 but not against ErbB3” (Amgen Inc., priority 2021, dated 2026)

B1: huNRG1(S177-F229)(NRGE1C) (D48T_F49Q_M50I) huIgG1z SELF2 Fc: Fc fusion of NRG1 variant SEQ ID NO:118 (protein)
chain: SHLVKCGEKHKSFCVNGGECFMIEGPSNPSRYLCKCPNEFTGDRCQAPHIASFGGGGEGGGGAGGGG[letters of human IgG1 Fc with R292C N297G V302C (EU numbers) not shown]
modifications: huNRG1(S177-F229)(NRGE1C) (E47A_D48P_F49H_M50I) huIgG1z SELF2 Fc
B2: huNRG1(S177-F229)(NRGE1C) (E47A_D48P_F49H_M50I) huIgG1z SELF2 Fc: Fc fusion of NRG1 variant SEQ ID NO:119 (protein)
chain: SHLVKCGEKHKSFCVNGGECFMIEGPSNPSRYLCKCPNEFTGDRCQAPHIASFGGGGEGGGGAGGGG[letters of human IgG1 Fc with R292C N297G V302C (EU numbers) not shown]
modifications: huNRG1(S177-F229)(NRGE1C) (E47A_D48P_F49H_M50I) huIgG1z SELF2 Fc
B3: huNRG1(S177-F229)(NRGE1C) (E47K_48T_F49S_M50L) huIgGlz SELF2 Fc: Fc fusion of NRG1 variant SEQ ID NO:120 (protein)
chain: SHLVKCGEKHKSFCVNGGECFMIEGPSNPSRYLCKCPNEFTGDRCQKTSLASFGGGGEGGGGAGGGG[letters of human IgG1 Fc with R292C N297G V302C (EU numbers) not shown]
modifications: huNRG1(S177-F229)(NRGE1C) (E47K_D48T_F49S_M50L) huIgG1z SELF2 Fc
B4: huNRG1(S177-F229)(NRGE1C) (E47Q_D48S_M50P) huIgG1z SELF2 Fc: Fc fusion of NRG1 variant SEQ ID NO:121 (protein)
chain: SHLVKCGEKHKSFCVNGGECFMIEGPSNPSRYLCKCPNEFTGDRCQQSFPASFGGGGEGGGGAGGGG[letters of human IgG1 Fc with R292C N297G V302C (EU numbers) not shown]
modifications: huNRG1(S177-F229)(NRGE1C) (E47Q_D48S_M50P) huIgG1z SELF2 Fc
B5: huNRG1(S177-F229)(NRGE1C) (E47S_D48A_F49L_M50T) huIgG1z SELF2 Fc: Fc fusion of NRG1 variant SEQ ID NO:122 (protein)
chain: SHLVKCGEKHKSFCVNGGECFMIEGPSNPSRYLCKCPNEFTGDRCQSALTASFGGGGEGGGGAGGGG[letters of human IgG1 Fc with R292C N297G V302C (EU numbers) not shown]
modifications: huNRG1(S177-F229)(NRGE1C) (E47S_D48A_F49L_M50T) huIgG1z SELF2 Fc
B6: huNRG1(S177-F229)(NRGE1C) huIgG1z SELF2 Fc: Fc fusion of NRG1 variant SEQ ID NO:117 (protein)
chain: SHLVKCGEKHKSFCVNGGECFMIEGPSNPSRYLCKCPNEFTGDRCQEDFMASFGGGGEGGGGAGGGG[letters of human IgG1 Fc with R292C N297G V302C (EU numbers) not shown]
modifications: huNRG1(S177-F229)(NRGE1C) huIgG1z SELF2 Fc
B7: huNRG1(S177-F229)(NRGE1D) huIgG1z SELF2 Fc: Fc fusion of NRG1 variant SEQ ID NO:126 (protein)
chain: SHLVKCGESHKSFCVNGGECYMVEGSSIPSRYLCKCPNEFTGDRCQEDFMASFGGGGEGGGGAGGGG[letters of human IgG1 Fc with R292C N297G V302C (EU numbers) not shown]
modifications: huNRG1(S177-F229) huIgG1z SELF2 Fc
B8: huNRG1(S177-F229) huIgG1z SELF2 Fc: Fc fusion of NRG1 fragment S177-F229 without variant mutations (protein)
chain: SHLVKCAEKEKTFCVNGGECFMVKDLSNPSRYLCKCPNEFTGDRCQNYVMASFGGGGEGGGGAGGGG[letters of human IgG1 Fc with R292C N297G V302C (EU numbers) not shown]
modifications: huNRG1(S177-F229) huIgG1z SELF2 Fc
notes: Fc fusion of NRG1 fragment S177-F229 without variant mutations
B9: :huFcSEFL2(desK):G4SG4:huNRG1(S177-F229)(NRGE1C): N-terminal Fc fusion of NRG1 variant SEQ ID NO:117 (protein)
chain: [letters of human IgG1 Fc with R292C N297G V302C (EU numbers) not shown]GGGGSGGGGSHLVKCGEKHKSFCVNGGECFMIEGPSNPSRYLCKCPNEFTGDRCQEDFMASF[letters of human IgG1 Fc with R292C N297G V302C (EU numbers) not shown]GGGGSGGGGSHLVKCGEKHKSFCVNGGECFMIEGPSNPSRYLCKCPNEFTGDRCQEDFMASF
modifications: huFcSEFL2(desK)G4SG4huNRG1(S177-F229) (NRGE1C)
B10: :huFcSEFL2(desK):G4SG4:huNRG1(S177-F229)(NRGE1D): N-terminal Fc fusion of NRG1 variant SEQ ID NO:126 (protein)
chain: [letters of human IgG1 Fc with R292C N297G V302C (EU numbers) not shown]GGGGSGGGGSHLVKCGESHKSFCVNGGECYMVEGSSIPSRYLCKCPNEFTGDRCQEDFMASF[letters of human IgG1 Fc with R292C N297G V302C (EU numbers) not shown]GGGGSGGGGSHLVKCGESHKSFCVNGGECYMVEGSSIPSRYLCKCPNEFTGDRCQEDFMASF
modifications: huFcSEFL2(desK)G4SG4huNRG1(S177-F229) (NRGE1D)
B11: :huFcSEFL2(desK):G4SG4:huNRG1(S177-Q237)(NRGEIC): N-terminal Fc fusion of NRG1 variant SEQ ID NO:124 (protein)
chain: [letters of human IgG1 Fc with R292C N297G V302C (EU numbers) not shown]GGGGSGGGGSHLVKCGEKHKSFCVNGGECFMIEGPSNPSRYLCKCPNEFTGDRCQEDFMASFYKAEELYQ[letters of human IgG1 Fc with R292C N297G V302C (EU numbers) not shown]GGGGSGGGGSHLVKCGEKHKSFCVNGGECFMIEGPSNPSRYLCKCPNEFTGDRCQEDFMASFYKAEELYQ
modifications: huFcSEFL2(desK)G4SG4huNRG1(S177-Q237) (NRGE1C)
B12: :huFcSEFL2(desK):G4SG4:huNRG1(S177-Q237)(NRGEID): N-terminal Fc fusion of NRG1 variant SEQ ID NO:131 (protein)
chain: [letters of human IgG1 Fc with R292C N297G V302C (EU numbers) not shown]GGGGSGGGGSHLVKCGESHKSFCVNGGECYMVEGSSIPSRYLCKCPNEFTGDRCQEDFMASFYKAEELYQ[letters of human IgG1 Fc with R292C N297G V302C (EU numbers) not shown]GGGGSGGGGSHLVKCGESHKSFCVNGGECYMVEGSSIPSRYLCKCPNEFTGDRCQEDFMASFYKAEELYQ
modifications: huFcSEFL2(desK)G4SG4huNRG1(S177-Q237) (NRGE1D)

Key:
ErbB4 = molecular target: T1, ErbB4 (Rattus norvegicus, UniProt Q62956); assay: In vitro phosphorylation of Akt in neonatal rat cardiomyocytes; format: cell-based; conditions: for EC50: Akt (Serine 473) phosphorylation, neonatal rat cardiomyocytes, 15 minutes treatment, read-out: Cardiomyocyte (CM) (ErbB4) Avg EC50; for Selectivity SC/CM: ratio of EC50s Schwann cells/cardiomyocytes; for CM % Agonism AVG: top value of the Akt phosphorylation data points in cardiomyocytes, wild-type control 100
T1 construct: forming the ErbB2/ErbB4 complex in cardiomyocytes and the ErbB2/ErbB3 complex in Schwann cells; endogenous in cells; host or cells: primary neonatal rat cardiomyocytes (Sprague Dawley pups, 0 to 4 days old)
T1 sequence (Q62956 26-1308): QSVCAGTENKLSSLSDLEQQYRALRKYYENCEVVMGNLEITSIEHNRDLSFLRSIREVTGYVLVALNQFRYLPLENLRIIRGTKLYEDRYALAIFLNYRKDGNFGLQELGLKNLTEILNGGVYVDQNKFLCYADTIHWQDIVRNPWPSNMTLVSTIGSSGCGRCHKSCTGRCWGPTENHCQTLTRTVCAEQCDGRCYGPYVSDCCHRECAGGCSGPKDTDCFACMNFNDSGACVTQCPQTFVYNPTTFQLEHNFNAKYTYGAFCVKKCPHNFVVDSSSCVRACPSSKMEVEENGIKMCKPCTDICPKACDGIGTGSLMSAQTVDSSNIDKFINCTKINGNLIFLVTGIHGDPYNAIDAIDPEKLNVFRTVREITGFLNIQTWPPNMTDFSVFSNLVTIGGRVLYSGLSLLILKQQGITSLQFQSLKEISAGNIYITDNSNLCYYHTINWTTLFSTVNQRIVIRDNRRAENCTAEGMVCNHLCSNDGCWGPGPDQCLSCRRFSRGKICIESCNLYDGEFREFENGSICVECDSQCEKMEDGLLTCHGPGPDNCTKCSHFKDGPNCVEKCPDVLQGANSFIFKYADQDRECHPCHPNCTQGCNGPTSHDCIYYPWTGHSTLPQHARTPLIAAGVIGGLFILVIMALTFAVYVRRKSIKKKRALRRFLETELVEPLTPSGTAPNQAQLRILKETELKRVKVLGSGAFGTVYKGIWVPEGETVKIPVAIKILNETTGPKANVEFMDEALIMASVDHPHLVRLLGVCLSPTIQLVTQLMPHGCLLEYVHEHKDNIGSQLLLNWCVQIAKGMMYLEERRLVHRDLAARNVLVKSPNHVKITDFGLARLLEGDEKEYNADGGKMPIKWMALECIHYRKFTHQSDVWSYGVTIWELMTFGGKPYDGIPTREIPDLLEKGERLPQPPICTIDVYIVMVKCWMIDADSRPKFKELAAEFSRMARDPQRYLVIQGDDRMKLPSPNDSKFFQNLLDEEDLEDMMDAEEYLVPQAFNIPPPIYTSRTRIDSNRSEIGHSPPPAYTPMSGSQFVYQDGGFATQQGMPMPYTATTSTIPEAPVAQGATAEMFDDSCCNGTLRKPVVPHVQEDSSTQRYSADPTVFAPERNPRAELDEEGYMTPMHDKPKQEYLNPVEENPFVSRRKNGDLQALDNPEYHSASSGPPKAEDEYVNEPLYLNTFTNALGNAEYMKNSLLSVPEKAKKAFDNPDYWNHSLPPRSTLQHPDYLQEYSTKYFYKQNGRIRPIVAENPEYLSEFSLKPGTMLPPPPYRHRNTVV
T1 sequence (P06494 23-1257 partner): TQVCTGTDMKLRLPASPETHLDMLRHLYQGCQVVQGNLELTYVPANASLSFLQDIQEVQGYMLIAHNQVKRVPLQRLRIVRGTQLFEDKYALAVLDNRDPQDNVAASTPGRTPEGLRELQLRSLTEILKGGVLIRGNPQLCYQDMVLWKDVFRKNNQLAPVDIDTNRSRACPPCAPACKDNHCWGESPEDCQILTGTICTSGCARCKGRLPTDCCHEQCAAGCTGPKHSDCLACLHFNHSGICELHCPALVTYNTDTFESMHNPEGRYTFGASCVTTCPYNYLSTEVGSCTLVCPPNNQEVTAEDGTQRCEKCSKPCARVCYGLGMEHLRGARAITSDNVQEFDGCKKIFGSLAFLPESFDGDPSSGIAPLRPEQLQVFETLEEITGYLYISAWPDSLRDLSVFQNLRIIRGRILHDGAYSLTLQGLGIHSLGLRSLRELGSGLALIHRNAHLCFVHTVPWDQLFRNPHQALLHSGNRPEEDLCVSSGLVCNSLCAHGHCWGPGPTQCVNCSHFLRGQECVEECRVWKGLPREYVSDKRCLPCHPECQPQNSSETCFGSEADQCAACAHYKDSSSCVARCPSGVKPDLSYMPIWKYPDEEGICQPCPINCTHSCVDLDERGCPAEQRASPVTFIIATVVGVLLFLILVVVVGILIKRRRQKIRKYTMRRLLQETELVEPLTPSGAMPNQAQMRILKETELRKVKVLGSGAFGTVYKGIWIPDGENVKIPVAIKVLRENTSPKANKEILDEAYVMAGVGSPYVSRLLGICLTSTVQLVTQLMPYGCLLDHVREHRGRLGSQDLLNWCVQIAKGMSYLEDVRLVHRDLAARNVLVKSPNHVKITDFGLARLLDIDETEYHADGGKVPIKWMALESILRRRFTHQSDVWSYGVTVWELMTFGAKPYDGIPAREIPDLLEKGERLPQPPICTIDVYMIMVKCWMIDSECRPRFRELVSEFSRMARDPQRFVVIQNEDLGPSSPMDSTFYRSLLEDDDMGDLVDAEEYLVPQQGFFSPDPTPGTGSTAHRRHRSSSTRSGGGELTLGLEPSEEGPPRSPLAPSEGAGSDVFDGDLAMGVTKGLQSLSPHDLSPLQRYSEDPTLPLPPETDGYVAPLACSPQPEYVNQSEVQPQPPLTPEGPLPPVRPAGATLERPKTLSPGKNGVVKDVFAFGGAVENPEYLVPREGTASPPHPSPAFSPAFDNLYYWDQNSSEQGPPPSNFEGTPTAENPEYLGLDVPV
How it was run: (§1)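 Neonatal Sprague Dawley rat cardiomyocytes (ErbB2/ErbB4) and rat Schwann cells (ErbB2/ErbB3), serum-starved 16 h, were exposed 15 min to neuregulin variant titrations. Ser473 phospho- and total Akt measured by MSD electrochemiluminescence; percent phosphorylation fitted by 4-parameter curve for EC50, top value giving CM % agonism.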

ErbB3 = molecular target: T2, ErbB3 (Rattus norvegicus, UniProt Q62799); assay: In vitro phosphorylation of Akt in rat Schwann cells; format: cell-based; conditions: Akt (Serine 473) phosphorylation, 15 minutes treatment; for EC50: read-out: Schwann cells (SC) (ErbB3) Avg EC50
T2 construct: forming the ErbB2/ErbB4 complex in cardiomyocytes and the ErbB2/ErbB3 complex in Schwann cells; endogenous in cells; host or cells: rat Schwann cells
T2 sequence (Q62799 20-1339): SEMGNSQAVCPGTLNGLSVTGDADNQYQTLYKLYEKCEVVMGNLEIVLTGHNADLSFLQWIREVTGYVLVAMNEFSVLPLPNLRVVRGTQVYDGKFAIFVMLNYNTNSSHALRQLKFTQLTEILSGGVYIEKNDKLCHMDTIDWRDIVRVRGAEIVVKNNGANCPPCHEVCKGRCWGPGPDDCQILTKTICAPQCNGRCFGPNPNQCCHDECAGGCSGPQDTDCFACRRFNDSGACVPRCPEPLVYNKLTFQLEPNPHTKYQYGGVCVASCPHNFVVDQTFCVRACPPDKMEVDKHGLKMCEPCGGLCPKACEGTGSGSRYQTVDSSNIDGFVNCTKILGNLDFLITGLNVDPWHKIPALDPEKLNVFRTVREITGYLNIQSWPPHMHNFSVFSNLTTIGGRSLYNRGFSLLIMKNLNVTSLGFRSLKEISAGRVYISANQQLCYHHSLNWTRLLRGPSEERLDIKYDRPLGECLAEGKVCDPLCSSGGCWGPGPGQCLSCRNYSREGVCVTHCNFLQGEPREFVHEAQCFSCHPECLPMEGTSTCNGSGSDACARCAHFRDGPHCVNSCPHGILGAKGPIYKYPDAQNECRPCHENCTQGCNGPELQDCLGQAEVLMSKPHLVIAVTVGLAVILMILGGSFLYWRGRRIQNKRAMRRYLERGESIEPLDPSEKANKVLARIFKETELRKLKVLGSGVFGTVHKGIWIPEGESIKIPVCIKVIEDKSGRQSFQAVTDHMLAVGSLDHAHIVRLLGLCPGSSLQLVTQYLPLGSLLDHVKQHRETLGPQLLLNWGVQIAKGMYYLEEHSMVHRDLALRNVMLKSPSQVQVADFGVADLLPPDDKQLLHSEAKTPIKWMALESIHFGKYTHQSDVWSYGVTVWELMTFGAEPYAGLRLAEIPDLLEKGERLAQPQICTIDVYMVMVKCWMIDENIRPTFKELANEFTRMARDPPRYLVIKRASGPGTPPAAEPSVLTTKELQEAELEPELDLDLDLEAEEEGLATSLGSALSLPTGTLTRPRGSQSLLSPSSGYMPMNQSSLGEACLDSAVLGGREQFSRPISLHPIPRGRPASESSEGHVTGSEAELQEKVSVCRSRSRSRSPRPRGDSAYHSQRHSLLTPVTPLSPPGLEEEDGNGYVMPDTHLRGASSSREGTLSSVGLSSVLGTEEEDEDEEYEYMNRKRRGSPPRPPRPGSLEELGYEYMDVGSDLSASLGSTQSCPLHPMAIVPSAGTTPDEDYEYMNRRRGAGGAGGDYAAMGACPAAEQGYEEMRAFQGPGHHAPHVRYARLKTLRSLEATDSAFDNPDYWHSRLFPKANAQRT
T2 sequence (P06494 23-1257 partner): as the sequence (P06494 23-1257 partner) above
How it was run: as §1

Molecule | EC50 (ErbB4) [nM] | Selectivity SC/CM (ErbB4) | CM % Agonism AVG (ErbB4) [%] | EC50 (ErbB3) [nM] | Schwann cells (SC) (ErbB3) Avg EC50 (M) (ErbB3)
B1 | 0.24 | >10000 | 83.6 | 10000 | 
B2 | 0.23 | >10000 | 85.8 | 10000 | 
B3 | 0.25 | >10000 | 92.9 | 10000 | 
B4 | 0.3 | >10000 | 83.2 | 10000 | 
B5 | 0.48 | >10000 | 87.8 | 10000 | 
B6 | 0.28 | >10000 | 77.2 | 10000 | 
B7 | 0.48 | >10000 | 82.2 | 10000 | 
B8 | 0.31 | 0.4516 | 91.4 | 0.14 | 
B9 | 0.29 | >10000 | 71.8 |  | inactive
B10 | 0.23 | >10000 | 76.2 |  | inactive
B11 | 0.11 | >10000 | 84.9 |  | inactive
B12 | 0.1 | >10000 | 90.5 |  | inactive
